In all, about 110,000 compounds were measured (“z-score”: median about -0.1, highest 2% from about 2 on). Some of the results follow. Active and inactive are the calls of the source.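 How the source made its calls: active means z-score in the third read window above 3 or below -3; inactive means the rest.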

These results are taken from PubChem BioAssay AID488969 (Vanderbilt High Throughput Screening Facility, 2010).

For the assay, the target named is Metabotropic glutamate receptor 8 (Rattus norvegicus) (UniProt P70579). Nature of the assay: rat mGluR8 modulators via GIRK flux, primary screen, cell-based, thallium flux, HTS (AID 488969). The note with it: HEK293 rat mGluR8, GIRK (G protein-gated inwardly rectifying potassium channel) thallium flux, FluoZin2; at 10 µM; stronger effect = higher value; submaximal glutamate (EC20) added with thallium.
Sequence of UniProt P70579 (P70579 whole entry, looked up): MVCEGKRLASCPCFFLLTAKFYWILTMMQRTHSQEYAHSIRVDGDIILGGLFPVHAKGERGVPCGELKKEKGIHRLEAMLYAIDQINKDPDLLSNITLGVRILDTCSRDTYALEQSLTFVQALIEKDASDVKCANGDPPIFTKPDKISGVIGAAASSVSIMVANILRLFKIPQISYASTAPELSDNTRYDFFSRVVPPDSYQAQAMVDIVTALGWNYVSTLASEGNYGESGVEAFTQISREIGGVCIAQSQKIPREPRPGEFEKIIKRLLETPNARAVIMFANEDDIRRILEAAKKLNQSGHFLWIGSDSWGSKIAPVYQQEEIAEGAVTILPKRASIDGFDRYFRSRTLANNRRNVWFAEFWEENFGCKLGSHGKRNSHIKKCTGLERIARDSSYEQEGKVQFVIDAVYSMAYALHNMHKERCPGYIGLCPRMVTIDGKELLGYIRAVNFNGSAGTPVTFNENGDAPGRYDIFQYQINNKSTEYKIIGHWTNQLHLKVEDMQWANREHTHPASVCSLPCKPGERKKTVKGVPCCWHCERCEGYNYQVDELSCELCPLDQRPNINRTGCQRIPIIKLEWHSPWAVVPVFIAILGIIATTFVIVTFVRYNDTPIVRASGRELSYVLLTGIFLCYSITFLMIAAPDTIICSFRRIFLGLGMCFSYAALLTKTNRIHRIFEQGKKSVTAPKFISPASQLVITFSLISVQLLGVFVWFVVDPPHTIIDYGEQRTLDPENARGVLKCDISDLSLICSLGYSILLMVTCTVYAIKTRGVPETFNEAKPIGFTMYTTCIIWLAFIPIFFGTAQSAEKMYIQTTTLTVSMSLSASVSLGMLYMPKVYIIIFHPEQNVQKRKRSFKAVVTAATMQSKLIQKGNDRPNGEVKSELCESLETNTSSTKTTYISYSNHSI
As to `Cc1noc(C)c1C(=O)N1CCOCC1`, the z-score worked out at 0.0184.
The molecule `Cc1ccc(NC(=O)CC2CS(=O)(=O)CC2CC(=O)Nc2ccc(C)c(C)c2)cc1C` (stereo unspecified) registered a z-score of -0.017.
The result for `Cc1ccc(CNCC(O)(c2ccccc2)c2ccc(F)cc2)cc1` (stereo unspecified) reads 0.253; that for `CC(=O)c1cccc(NC(=O)C2CCCN(S(=O)(=O)c3ccccc3)C2)c1` (stereo unspecified), -0.67.
For `Cc1cc(SCC(=O)c2cc3ccccc3o2)nc2ccccc12`, the z-score came to 0.521.
The result for `Cc1ccc(Cl)cc1NC(=O)Cn1cccc1` reads -0.44; that for `CCn1c(COc2c(C)cccc2C)nnc1SCC(=O)N1CCN(c2ccccc2)CC1`, -0.677; that for `O=C(NCc1ccccn1)c1ccc(/C=N/O)nc1`, 0.75.
`Cc1ccc(-c2nc(N)sc2-c2ccccc2)cc1C` displayed a z-score of -0.155.
`N#CC(Nc1ccccc1)c1ccccc1OCc1ccccc1` (stereo unspecified) yielded a z-score of -0.529.
With `CCN(CC)CCOCCOc1ccccc1F`, the z-score is -1.06.
The value for `Cc1ccccc1N1CCN(CCCN2C(=O)CC(=C(c3ccccc3)c3ccccc3)C2=O)CC1` was -0.18; that for `COc1ccc(C2CC(C(F)(F)F)n3ncc(C(=O)Nc4c(C)n(C)n(-c5ccccc5)c4=O)c3N2)cc1` (stereo unspecified) was 0.575; that for `CCn1cc(C=C2C(=O)c3ccccc3C2=O)c2ccccc21` was -0.398.
The value for `O=C1C2C3c4ccccc4C(c4ccccc43)[C@@H]2C(=O)N1c1cccnc1` (stereo partly specified) was -0.0823; that for `Cc1cccc(NC(=O)C2c3ccccc3C(=O)N3CCc4ccccc4C23)n1` (stereo unspecified) was 0.0262.
The result for `O=C(Nc1ccccc1C(=O)NCC1CCCO1)c1ccco1` (stereo unspecified) reads -0.0929; that for `CC1=C(C(=O)Nc2ccc(C)cc2)C(c2ccc(N(C)C)cc2)NC(=O)N1` (stereo unspecified), -0.286; that for `CC(C)Cc1nc(C(N)=O)c2[nH]c(=O)n(-c3ccc(F)cc3)c2n1`, -0.334.
For `Cc1ccc2nc(N3C(=O)C(O)=C(C(=O)c4cc5ccccc5o4)C3c3cccs3)sc2c1` (stereo unspecified), the z-score is 0.257.
`O=C(Cn1cnc2c(oc3ccccc32)c1=O)NCCc1ccccc1` gave a z-score of -1.03.
The result for `Cc1ccc(S(=O)(=O)Nc2ccc(NC(=O)CN3CCCCC3)c(Cl)c2)cc1` reads -0.137; that for `Cc1ccc(NC(=S)NNC(=O)CCn2cc(C)cn2)cc1`, -0.254.
In turn, `Cc1ccc(N2CCN(S(=O)(=O)N3CCCCCC3)CC2)cc1Cl` returned a z-score of 0.295.
The result for `CCCCn1c(SCC(=O)NCc2ccco2)nc2c1c(=O)n(C)c(=O)n2C` reads 0.274.
In turn, `O=C(Nc1ccc(-c2nc3ccccc3o2)cc1)c1ccc(N2CCOCC2)c([N+](=O)[O-])c1` had a z-score of -0.0721.
For `CCOC(=O)N1CCN(C(=O)C(CC)c2ccccc2)CC1` (stereo unspecified), the z-score was -0.202.
On to `CC(=O)Oc1ccc(-c2cccc(C(=O)OCC(=O)Nc3ccccc3Oc3ccccc3)c2)cc1`, for which the z-score is -0.327.
As for `CCC(C)(C)NC(=O)C(c1ccco1)N(C(=O)c1csnn1)c1cccc(F)c1` (stereo unspecified), the z-score was -0.194.
In turn, `Cc1ccc(NC(=O)C(=O)NCCOc2ccc(Cl)cc2)c(C)c1` registered a z-score of -0.154.
Molecule `COc1ccc(Cl)cc1C(=O)NNC(=O)c1cccc(S(=O)(=O)N(C)C)c1` had a z-score of 0.0171.
The result for `Cn1c(CC(=O)Nc2ccc(Cl)c(Cl)c2)nnc1SCC(=O)Nc1nccs1` reads -0.213; that for `CC(C)n1c(O)c(/C=C2\C=Nc3ccccc32)sc1=Nc1ccccc1`, 0.205; that for `Cc1ccc(-n2c(SCC(=O)c3c(N)n(C)c(=O)n(C)c3=O)nc3sc4c(c3c2=O)CCCC4)c(C)c1`, 0.0121.
The result for `COc1ccc(CN2CC(C(=O)NCCc3ccccc3)CC2=O)cc1` (stereo unspecified) reads 0.541.
The result for `CC(C(=O)NCCN1C(=O)S/C(=C\c2cccnc2)C1=O)N1C(=O)c2ccccc2C1=O` (stereo unspecified) reads -0.258; that for `O=C(NC1CCCCC1)C(c1ccco1)N(C(=O)c1csnn1)C1CCCC1` (stereo unspecified), 0.0116.
In turn, `CCN(CCO)c1ncnc2c1sc1nc(CC(C)C)c3c(c12)CC(C)(C)OC3` yielded a z-score of -0.758.
The value for `CC1CCN(C(=S)NC2CCCCC2)CC1` was -0.176; that for `O=C(CN(CC1CCCO1)C(=O)CNS(=O)(=O)c1ccc(Cl)cc1)NCC1CCCO1` (stereo unspecified) was 0.1; that for `CCOc1ccc(NC(=O)N(C2CCCCC2)C(C)c2cccnc2)cc1` (stereo unspecified) was 0.0145.
The result for `COc1ccccc1CNC(=O)c1csc(Cc2ccc(Cl)cc2)n1` reads -0.161.
The molecule `COc1ccc(-n2c(-c3cnccn3)n[nH]c2=S)cc1` had a z-score of 0.268.
The value for `CCOC(=O)Cc1csc(NC(=O)c2ccc(S(=O)(=O)N3CCCCC3)cc2)n1` was -0.293; that for `COc1cc(NC(=O)CN2CCN(Cc3ccc4c(c3)OCO4)CC2)cc(OC)c1` was -0.258.
As to `O=C(CSc1nnc(-c2ccccc2)o1)n1c2c(c3ccccc31)CCCC2`, the z-score came out at 0.663.
The result for `CC(C)Oc1cc(NC(=O)CSCC(=O)Nc2cccc(C(F)(F)F)c2)c(Cl)cc1Cl` reads -0.183; that for `Cc1cc(C)n2nc(C(=O)Nc3nnc(C4CC4)s3)nc2n1`, -0.205; that for `COCCNC(=O)C(c1ccc(C)o1)N(Cc1ccco1)C(=O)c1snc(C(N)=O)c1N` (stereo unspecified), -0.103.
In the case of `Cn1nc(-c2ccc(Cl)cc2)c2cc(C(=O)N3CCN(C(=O)c4ccco4)CC3)sc21`, the z-score is -0.708.
The result for `CC(C)(C)C1CCC2(CC1)C(C#N)=C(SCC(=O)NC1CCCCC1)NC(=O)C2C#N` (stereo unspecified) reads -0.215; that for `N#Cc1c(-c2ccco2)nc(SCC(=O)Nc2cccc(Cl)c2)[nH]c1=O`, -2.83; that for `N=C1C(=O)OCC1c1ccccc1NC(=O)CN1CCOCC1` (stereo unspecified), -1.61.
In the case of `CCN(CC(=O)Nc1ccccc1OC)C(=O)C1CC2C=CC1C2` (stereo unspecified), the z-score is -0.115.
Take `O=C(CCn1cnc(-c2ccccc2)c1-c1ccccc1)N/N=C/c1ccc(O)cc1`: the z-score was -1.15.
Molecule `Clc1ccc(-n2nnnc2CN2CCOCC2)cc1` yielded a z-score of -0.108.
`Cc1c(C2Nc3ccccc3NC3=C2C(=O)CC(C)(C)C3)cnn1C` (stereo unspecified): the z-score was active: 4.64.
The value for `COCCNC(=O)c1ccccc1NC(=O)c1ccccc1N(C)S(=O)(=O)c1ccc(C)cc1` was 0.0191.
Molecule `CCOc1ccc(N2C(=O)NC(Cc3c[nH]c4ccccc34)C2=O)cc1` (stereo unspecified) showed a z-score of -0.0642.
The molecule `O=C(CCCc1ccccc1)N1CCN(c2ccc([N+](=O)[O-])cc2)CC1` returned a z-score of -0.394.
Molecule `CN(C)c1ccc(NC(=O)Cn2c(=O)n(Cc3ccccc3)c(=O)c3ccccc32)cc1` returned a z-score of 0.179.
`CC(=O)OCCN1C(=O)c2cccnc2C1=O` returned a z-score of 0.491.
The result for `CCN1CCN(C(=O)CCc2nc3ccccc3n2-c2ccccc2)CC1` reads -0.235; that for `O=C(O)CCc1ccc(-c2cccs2)n1CC1CCCO1` (stereo unspecified), 0.167; that for `C/C(=N\NC(N)=O)C1(C)CCCCC1`, -0.196.
The result for `Cn1c(SCC(=O)Nc2ccccc2F)nnc1-c1cc2ccccc2o1` reads -0.145; that for `Cc1ccc(CNC(=O)COC(=O)c2ccc(Br)cc2)cc1`, -0.265.
`COc1ccc(-c2nc(S(=O)(=O)c3ccccc3)c(N3CCOCC3)o2)cc1` yielded a z-score of -0.0916.
The value for `O=C(CCC1CCCCC1)N1CCN(Cc2ccc3c(c2)OCO3)CC1` was -0.343.
`COC(=O)[C@H](CCSC)NC(=O)Nc1cc(C)ccc1C` showed a z-score of -0.0345.
`CSc1oc(-c2ccc(F)cc2)nc1S(=O)(=O)c1ccc(F)cc1` returned a z-score of -0.541.
The value for `O=C(Nc1sc2c(c1C(=O)NC1CCCCC1)CCC2)c1ccco1` was -0.079.
For `COc1cc2c(cc1OC)C(C)N(C(C)=O)CC2` (stereo unspecified), the z-score is -0.56.
As for `CCC(c1nnnn1C(C)(C)CC)N(CCN1CCOCC1)Cc1cc2cc(C)ccc2[nH]c1=O` (stereo unspecified), the z-score is -0.326.
The result for `O=[N+]([O-])c1ccc(/C=N/Nc2nc(-c3ccccc3)c3cc(Br)ccc3n2)o1` reads 0.0846; that for `CC1=C(C#N)C(NC(=O)c2ccc(Cl)cc2)(C(F)(F)F)C(=O)N1` (stereo unspecified), -0.044.
The value for `CC(C)[C@H](NC(=O)c1ccccc1)C(=O)OCC(=O)N1CCCCCC1` was -0.315.
The result for `CCOc1ccc(N(CC)S(=O)(=O)c2ccc3c(c2)n(C)c(=O)c(=O)n3C)cc1` reads -0.239; that for `CC1=CC(C#N)(C#N)C(C#N)(C#N)C(c2ccccc2)N1` (stereo unspecified), -0.143.
As for `O=C(COc1ncnc2sccc12)NC1CCCc2ccccc21` (stereo unspecified), the z-score was -0.199.
The value for `CC(C)CC(=O)Nc1ccc(S(=O)(=O)NCc2ccco2)cc1` was -0.479; that for `O=C(Nc1ccccc1)N1CC=C(c2ccc(F)cc2)CC1` was 0.309; that for `Nn1cnc2sc3c(c2c1=O)CCC3` was 0.195.
As for `Cc1[nH]n(-c2cccc3ccccc23)c(=O)c1/C=N/c1sc2c(c1C#N)CCC2`, the z-score is active: 8.05.
With `CCN(CC)S(=O)(=O)c1ccc(OC)c(NC(=S)Nc2ccc(C)c(C)c2)c1`, the z-score is -0.259.
The result for `C/C(=N/N=C/c1ccc(N(C)C)cc1)c1ccccc1` reads 0.00335; that for `COc1ccc(CNC(=O)COC(=O)CCCOc2ccc(Cl)cc2Cl)cc1OC`, -0.0987.
The value for `CCN(CC)Cc1cc(NC2=NS(=O)(=O)c3ccccc32)ccc1OC(=O)C(C)C` was -1.44; that for `O=[N+]([O-])c1ccc2c(c1)C(N1CCOCC1)/C(=C/COc1ccc3ccccc3c1Br)O2` (stereo unspecified) was -0.0823.
The value for `CN1CCN(C(=O)c2sc(=S)n(-c3ccccc3)c2N)CC1` was active: 11.1; that for `CCOC(=O)Cn1c(-c2ccccc2)nc2ccccc2c1=O` was 0.194.
In turn, `Cc1ccc(NC(=O)C2(c3ccccc3)CCCC2)nc1` gave a z-score of -0.464.
In turn, `Cc1cc(C(=O)NCCCn2ccnc2)cs1` displayed a z-score of 0.256.
The result for `Cc1cccc(NC(=O)CSc2nnnn2C)n1` reads 0.2; that for `CC(=O)Nc1ccc(OCC(O)CN2CCN(S(=O)(=O)c3ccc(NC(C)=O)cc3)CC2)cc1` (stereo unspecified), 0.116; that for `COc1ccc(C2C(C#N)=C(N)Oc3cc(C)[nH]c(=O)c32)c(OC)c1OC` (stereo unspecified), -0.0016.
The result for `COc1ccc(/C=c2\s/c(=C(/C#N)C(=O)NCc3ccco3)n(-c3ccccc3)c2=O)cc1` reads 0.186.
The value for `COc1ccc(C(C)=O)c(Oc2nc(CN3CCOCC3)nc3scc(-c4cccs4)c23)c1` was -0.61; that for `Nc1c(C(=O)NCCc2ccc(Cl)cc2)sc2ccc(S(=O)(=O)N3CCCCC3)cc12` was 0.087.
For the molecule `COc1cccc(C(=O)/C=C/Nc2cccc(O)c2)c1`, the z-score was -0.665.
The result for `CC(C)C(NC(=O)OCc1ccccc1)C(=O)O` (stereo unspecified) reads -0.112; that for `Cc1ccccc1-c1nsc(SCC(=O)c2ccc(Cl)cc2)n1`, 0.311; that for `CCCCOC(=O)c1cccc(NC(=O)CC)c1`, -0.14.
With `CN1CCN(C(=O)c2ccc3c(c2)NC(=O)C(N2CCOCC2)S3)CC1` (stereo unspecified), the z-score was -0.0177.
In turn, `Cc1sc2ncnc(N/N=C/c3ccc(O)cc3)c2c1C` registered a z-score of -0.33.
`CCn1c(-c2ccccc2Cl)nn(CC(=O)Nc2ccccc2C)c1=S` returned a z-score of -0.186.
